{
  "source": "PubChem BioAssay AID463173",
  "about": "(ICCB-Longwood Screening Facility, Harvard Medical School, 2010)",
  "note": "Hit rate of the full screen: of about 52,000 compounds, about 1,700 (3.3%) were called active. Rule as the data show it: active = survival mostly below about 52% (no sharp cut-off); inactive = mostly above about 56%. This is one part of the list.",
  "data": [
    {"test_system": "Wild type", "test": "growth inhibition of S. aureus wild type versus tarO mutant, primary screen, teichoic acid synthesis inhibitors, RN4220, OD600 (AID 463173)", "conditions": "S. aureus RN4220 wild type/DeltatarO growth, OD600, 18 h, stronger effect = lower value, screened at 18.75 µg/mL (by protocol)", "values": [
      {"smiles": "CCc1cccc(C)c1NC(=O)CCCN1C(=O)C(c2ccccc2)Oc2cccnc21", "note": "(centres undefined)", "survival": "inactive: 94%"},
      {"smiles": "CCOC(=O)c1c(C)[nH]c(C)c1S(=O)(=O)N(C)CC(=O)NCc1cccc(Br)c1", "survival": "inactive: 85%"},
      {"smiles": "COc1ccc(NC(=O)NCCn2nnc3cc(S(=O)(=O)N(C)C)ccc32)cc1", "survival": "inactive: 59%"},
      {"smiles": "COCCOC(=O)C1=C(C)OC(N)=C(C#N)C1c1cc2cc3c(cc2nc1Cl)OCO3", "note": "(centres undefined)", "survival": "inactive: 110%"},
      {"smiles": "O=C(NCc1nc2ccccc2[nH]1)c1cccc(Cl)c1", "survival": "inactive: 89%"},
      {"smiles": "NC(=O)c1ccccc1NS(=O)(=O)c1ccccc1", "survival": "inactive: 111%"},
      {"smiles": "O=C(Cn1c(=O)c2ccccc2n2nncc12)Nc1cccc(F)c1", "survival": "inactive: 89%"},
      {"smiles": "CCc1cccc(C)c1NC(=O)CCCn1nc(C)c2sc3ccccc3c2c1=O", "survival": "inactive: 90%"},
      {"smiles": "O=C1OCC2=C1C(c1ccc3c(c1)OCO3)Sc1ccccc1N2", "note": "(centres undefined)", "survival": "inactive: 125%"},
      {"smiles": "Cc1cc(N2CCCCC2)nc2ccc(NC(=O)/C=C/c3ccc(OCCC(C)C)cc3)cc12", "survival": "inactive: 71%"},
      {"smiles": "Cc1ccccc1Cn1cnc2nc3c(cc2c1=O)CC(C)CC3", "note": "(centres undefined)", "survival": "active: 0%"},
      {"smiles": "Cc1ccc(Cl)cc1NC(=O)CCn1c(=O)c2cccn2c2cccnc21", "survival": "inactive: 90%"},
      {"smiles": "CCN1CC=C2C(C1)C(c1ccc(Cl)s1)C(C#N)=C(N)C2(C#N)C#N", "note": "(centres undefined)", "survival": "inactive: 91%"},
      {"smiles": "CCOc1ccc2nc(N3CCC(C(=O)Nc4cc(C)ccc4C)CC3)sc2c1", "survival": "inactive: 86%"},
      {"smiles": "COCCCNC(=O)c1ccc2c(c1)nc1n2CCCCC1", "survival": "inactive: 80%"},
      {"smiles": "S=C(Nc1ccccc1)Nn1cnnc1", "survival": "inactive: 112%"},
      {"smiles": "Cc1ccc(NC(=O)Cn2cc3c(n2)CCCC3)c(C)c1", "survival": "inactive: 86%"},
      {"smiles": "O=C(NC1CCCCC1)c1ccc(CSc2nc3ccncc3n2Cc2ccccc2F)cc1", "survival": "inactive: 94%"},
      {"smiles": "COc1ccc(NC(=O)CSc2nc(-c3cccs3)cc(C(F)(F)F)n2)c(OC)c1", "survival": "inactive: 71%"},
      {"smiles": "Oc1c(C(c2ccccc2Cl)N2CCN(Cc3ccccc3)CC2)sc2nc(-c3ccco3)nn12", "note": "(centres undefined)", "survival": "inactive: 73%"},
      {"smiles": "CCc1ccc(NC(=O)CSc2ccc(-c3cccs3)nn2)cc1", "survival": "inactive: 87%"},
      {"smiles": "O=C(CSCc1cnn(-c2ccccc2)c1-n1cccc1)NCc1ccc(F)cc1", "survival": "inactive: 88%"},
      {"smiles": "Cc1noc(Cn2c(=O)c3cc4c(cc3n(CC(=O)Nc3ccccc3F)c2=O)OCO4)n1", "survival": "inactive: 73%"},
      {"smiles": "CCOC(=O)c1cnc2ccc(OCC)cc2c1N1CCN(c2ccccc2F)CC1", "survival": "active: -12%"},
      {"smiles": "CCOC(=O)C1CCC(CN(Cc2ccc(OC)cc2)S(=O)(=O)c2ccc(F)c(C(=O)Nc3cc(C)ccc3C)c2)CC1", "note": "(centres undefined)", "survival": "inactive: 70%"},
      {"smiles": "Cc1nc(N2CCCC2)c2c(C(=O)Nc3ccc(Br)cc3F)c(C)oc2n1", "survival": "inactive: 19%"},
      {"smiles": "CCOc1ccc(NC(=O)c2ccc3snnc3c2)cc1", "survival": "inactive: 109%"},
      {"smiles": "Cc1ccc(NC(=O)CNCc2ccco2)cc1Cl", "survival": "inactive: 101%"},
      {"smiles": "CC(C)NC(=O)C1CCC(Cn2c(=O)c3sccc3n(CC(=O)Nc3ccccc3)c2=O)CC1", "note": "(centres undefined)", "survival": "inactive: 81%"},
      {"smiles": "Cc1ccccc1C(=O)Nc1nc(-c2ccc(Br)cc2)ns1", "survival": "inactive: 70%"},
      {"smiles": "COc1ccc(-c2csc3nc(-c4ccccc4)oc(=O)c23)cc1OC", "survival": "inactive: 126%"},
      {"smiles": "CCOC(=O)c1c(C)n(-c2ccccc2)c2ccc(OC(=O)c3cccc(Cl)c3)cc12", "survival": "inactive: 78%"},
      {"smiles": "FC(F)(F)c1cc(-c2cccc(Br)c2)nc2ncnn12", "survival": "inactive: 124%"},
      {"smiles": "Cc1cccc(-c2nc(CSc3nncn4c3cc3sccc34)c(C)o2)c1", "survival": "inactive: 84%"},
      {"smiles": "CCOC(=O)c1ccc(CN(Cc2ccccc2)S(=O)(=O)c2ccc(Cl)cc2)cc1", "survival": "active: 0%"},
      {"smiles": "CC(=O)c1cc(-c2ccccc2)n(CC(=O)NCCc2ccc(C)cc2)c1C", "survival": "inactive: 70%"},
      {"smiles": "CC(C)Oc1ccc(CNC(=O)C2CCN(C(=O)N3CC(C)Oc4ccccc43)CC2)cc1", "note": "(centres undefined)", "survival": "inactive: 89%"},
      {"smiles": "CC1(C)Cc2[nH]c(=S)c(C#N)cc2CO1", "survival": "inactive: 67%"},
      {"smiles": "COc1ccc(OC)c(C2c3c(-c4ccc(Br)cc4)n[nH]c3C(=O)N2c2ccc(Cl)cc2)c1", "note": "(centres undefined)", "survival": "inactive: 77%"},
      {"smiles": "CCOc1ccc(NC(=O)c2ccc3c(SCC(=O)O)c4c(nc3c2)CCC4)cc1", "survival": "inactive: 80%"},
      {"smiles": "CCOC(=O)c1c(Nc2cccc(C(=O)OC)c2)nnc(-c2ccccc2)c1-c1ccccc1", "survival": "inactive: 19%"},
      {"smiles": "CCOc1ccccc1-c1noc(CSc2nnc(-c3ccccc3)n2-c2cccc(C)c2)n1", "survival": "inactive: 91%"},
      {"smiles": "COc1ccc(Nc2cc(C(=O)NCCCN(C)Cc3ccccc3)c3ccccc3n2)c(OC)c1", "survival": "inactive: 87%"},
      {"smiles": "CCOc1ccc(S(=O)(=O)NCC(c2ccco2)S(=O)(=O)c2ccc(C)cc2)cc1", "note": "(centres undefined)", "survival": "inactive: 47%"},
      {"smiles": "CC(C)(Cc1ccc(O)cc1)NC(=O)c1ccccc1", "survival": "inactive: 98%"},
      {"smiles": "COc1ccccc1C(=O)Nc1ccc(NC(=O)c2cccs2)cc1", "survival": "inactive: 74%"},
      {"smiles": "CCOc1ccccc1NC(=O)COC(=O)c1cn(CC)c2nc(C)ccc2c1=O", "survival": "inactive: 63%"},
      {"smiles": "COc1cc(-c2nc3ccccn3c2Nc2ccccc2C)ccc1O", "survival": "inactive: 65%"},
      {"smiles": "O=C(Nc1cccc(C(F)(F)F)c1)N1CCC(CN2CCCCCC2)CC1", "survival": "inactive: 51%"},
      {"smiles": "COc1ccccc1NC(=O)N1CCN(c2nnc(C)c3c(C)n(-c4ccc(Cl)cc4)nc23)CC1", "survival": "inactive: 83%"},
      {"smiles": "CC(C)N(C(=O)CSc1nnc(-c2cccs2)o1)C(C)C", "survival": "inactive: 116%"},
      {"smiles": "COc1ccc(CC(=O)NCCc2sc(-c3ccc(Cl)cc3)nc2C)cc1OC", "survival": "inactive: 74%"},
      {"smiles": "CC1CCc2c(sc(NC(=O)Cn3nnc(-c4ccc(C(F)(F)F)cc4)n3)c2C#N)C1", "note": "(centres undefined)", "survival": "inactive: 77%"},
      {"smiles": "COC(=O)CCC(=O)Nc1cccc2ccccc12", "survival": "inactive: 101%"},
      {"smiles": "COc1ccccc1CNS(=O)(=O)c1ccc(-c2cc(C(F)(F)F)on2)s1", "survival": "inactive: 73%"},
      {"smiles": "OP(Oc1ccccc1)(Oc1ccccc1)=P(O)(Oc1ccccc1)Oc1ccccc1", "survival": "inactive: 103%"},
      {"smiles": "CC1CCN(c2cc3c(cc2F)c(=O)c(S(=O)(=O)c2cccc(Cl)c2)cn3Cc2ccccc2)CC1", "survival": "inactive: 59%"},
      {"smiles": "CCn1nc(C(C)C(=O)O)c2ccccc2c1=O", "note": "(centres undefined)", "survival": "inactive: 109%"},
      {"smiles": "Cn1nc(-c2ccccc2F)c2cc(C(=O)NCc3ccc(Cl)cc3)sc21", "survival": "inactive: 107%"}
    ]}
  ]
}
